Reference: PubChem BioAssay AID1466 (National Center for Advancing Translational Sciences (NCATS), 2008)
Screen size: about 200,000 compounds; about 10 (0.005%) were called active. Inconclusive means that the source gave no clear call. Such entries were picked first, then a sample of the others. The call rests on the fitted dose curve; in most records, active means well fitted inhibition curve with a large enough effect; inconclusive means small, poorly fitted or top-dose-only effect, or effect the other way, or another doubt; inactive means no such curve, though single readings can be large or run the other way. Potencies of inconclusive entries are left out as doubtful fits.

Biological target: Lysosomal alpha-glucosidase (Homo sapiens) (UniProt P10253)
Experiment: qHTS Assay for Inhibitors of Human alpha-Glucosidase as a Potential Chaperone Treatment of Pompe Disease;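 on activity change, negative = inhibition: plate controls were uninhibited enzyme wells for no effect and no-enzyme background for full effect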
Conditions: purified human GAA, 4-MU-alpha-glucoside fluorescence; activity change, negative = inhibition: at 76.9 µM (top of the series) unless noted
Outline: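 Activity normalized between no-enzyme (basal) and enzyme-only wells. Conditions: 4 nM human enzyme, 400 uM fluorogenic substrate, citrate/phosphate pH 5.0 with Tween-20, 20 min room temperature, compounds up to 77 uM.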
Potency means the concentration at half of the fitted maximal effect; tags describe the fitted curve by direction and shape.

Row | SMILES | Potency | activity change, negative = inhibition
1 | COc1ccc(C)c(S(=O)(=O)Nc2ccc(OCC(=O)O)cc2)c1 | inconclusive [activator, full curve] | –
2 | Cc1ccccc1N1C(=O)N(c2cccc(C(F)(F)F)c2)C2CS(=O)(=O)CC21 (configuration not stated) | inconclusive [inhibitor, single point] | –
3 | Cc1cc(C(F)(F)F)nn1CC(=O)N1CCCCC1C (configuration not stated) | inconclusive [inhibitor, single point] | –
4 | CCC(C(=O)NC1CCCCC1)n1c(SCc2ccc(F)cc2)nc2ccncc21 (configuration not stated) | inconclusive [inhibitor, single point] | –
5 | CCCCCCn1c(N2CCN(c3ccccc3)CC2)nc2c1c(=O)[nH]c(=O)n2C | – | inconclusive: -15% [inhibitor]
6 | CCn1c(C)nc2cc(S(=O)(=O)C(F)F)ccc21 | inconclusive [inhibitor, single point] | –
7 | Cc1c(Br)c(C(F)(F)F)nn1CC(=O)NCCCn1ccnc1 | – | inconclusive: 3.48% [activator]
8 | COCCn1c(C)cc(C(=O)CSc2nnc(C)s2)c1C | inactive | –
9 | O=C(COc1ccc(-c2nnco2)cc1)N1CCN(S(=O)(=O)c2ccc3ccccc3c2)CC1 | inconclusive [inhibitor, full curve] | –
10 | COc1cccc(/C=C/C(=O)Nc2ccc3[nH]c(=O)[nH]c3c2)c1 | – | inconclusive: 16.7% [activator]
11 | Cc1ccccc1C(=O)/C(C#N)=N/Nc1c(C)n(C)n(-c2ccccc2)c1=O | – | inconclusive: -18.2% [inhibitor]
12 | CC(C)c1cc(=O)oc2c3c4c(cc12)CCCN4CCC3 | inconclusive [activator, partial curve] | –
13 | CSc1ccccc1NC(=O)CN(C)CC(=O)NCc1ccccc1 | inactive | –
14 | CCN(C(=O)COC(=O)c1cccnc1Nc1cccc(C(F)(F)F)c1)C1CCS(=O)(=O)C1 (configuration not stated) | inconclusive [inhibitor, single point] | –
15 | Cn1c(C(=O)NCCN2CCOCC2)cc2c(=O)n(C)c3ccccc3c21 | inactive | –
16 | CC1CCCCC1NC(=O)CCCCCn1c(=S)[nH]c2ccccc2c1=O (configuration not stated) | inconclusive [inhibitor, single point] | –
17 | Cn1cnc(S(=O)(=O)Nc2ccccc2N2CCOCC2)c1 | inconclusive [inhibitor, partial curve] | –
18 | O=C(COc1ccccc1)Nc1ccncc1 | – | inconclusive: 17.5% [activator]
19 | N#Cc1cc(-c2ccc(Cl)cc2)cn(Cc2c(Cl)cccc2Cl)c1=O | inconclusive [activator, single point] | –
20 | CC(=C/c1ccc(C(C)C)cc1)/C=N/NC(=O)CSc1ccccn1 | inconclusive [inhibitor, partial curve, poor fit] | –
21 | CC1(C)CC(=O)c2c(oc3ccc(NS(=O)(=O)c4ccc(C(=O)O)cc4)cc23)C1 | inconclusive [inhibitor, partial curve, poor fit] | –

Row | SMILES | Potency | activity change, negative = inhibition
22 | COc1ccc(CCn2c(C(C)C)nc3c(c(=O)c4ccccc4n3C)c2=O)cc1 | inconclusive [inhibitor, partial curve] | –
23 | CCOC(=O)C1=C(c2ccccc2)Nc2ncnn2C1c1ccccn1 (configuration not stated) | – | inconclusive: 16.7% [activator]
24 | COc1ccccc1N1CCN(S(=O)(=O)c2ccc3c(c2)n(C)c(=O)n3C)CC1 | inconclusive [inhibitor, single point] | –
25 | O=[N+]([O-])c1cccc(/C=N/Nc2nc(NCc3ccccc3)nc(N3CCOCC3)n2)c1O | – | inconclusive: 16.8% [activator]
26 | O=[N+]([O-])c1ccc(Sc2ncccn2)c([N+](=O)[O-])c1 | inconclusive [inhibitor, single point] | –
27 | Cc1cccn2c(=O)c(C=Nc3ccc(Cl)cc3)c(NCCO)nc12 | inconclusive [activator, single point] | –
28 | O=C(O)/C=C\C(=O)NC1CCCCC1 | inconclusive [inhibitor, partial curve, poor fit] | –
29 | O=C(CC1SCCNC1=O)Nc1ccc(Cl)cc1 (configuration not stated) | – | inconclusive: 18.3% [activator]
30 | CC(C)n1c(=S)[nH]c2cc(C(F)(F)F)ccc21 | – | inconclusive: -18.2% [inhibitor]
31 | CN(C)c1cc(NC(=O)CN2CCOCC2)c2ccccc2n1 | inconclusive [activator, partial curve] | –
32 | COc1cccc(=O)c2c(C)n(-c3ccc(C(=O)O)cc3)c(C)c12 | inconclusive [inhibitor, partial curve, poor fit] | –
33 | Cc1ccc(NC(=O)Nc2ncccc2C)cc1 | – | inconclusive: -16.5% [inhibitor]
34 | CCCC1OC23CCCCC2C(C#N)(C(=N)O3)C1(C#N)C#N (configuration not stated) | inconclusive [activator, partial curve] | –
35 | CC(C)[C@H](NS(=O)(=O)c1ccccc1)C(=O)OCC(=O)Nc1ccccc1Sc1ccccc1 | inconclusive [inhibitor, single point] | –
36 | CC1CCCN(C(=O)COC(=O)c2ccc[nH]c2=O)C1 (configuration not stated) | inconclusive [activator, full curve] | –
37 | Cc1ccc(C(C(=O)NC2CCCC2)N(C(=O)Cc2cccs2)c2cccc(C)c2C)o1 (configuration not stated) | inconclusive [inhibitor, single point] | –
38 | Cc1nc2cc(-c3ccc(Cl)cc3)nn2c(C)c1CCC(=O)NCc1ccco1 | – | inconclusive: 17% [activator]
39 | NC(=O)C1c2ccccc2CSc2ccccc21 (configuration not stated) | inconclusive [inhibitor, single point] | –
40 | C=CCn1c(SCC(=O)Nc2nc(C)cs2)nnc1C(C)NC(=O)c1ccccc1Cl (configuration not stated) | – | inconclusive: -15.7% [inhibitor]
41 | COc1ccc(/C=C(/CC(=O)NCc2ccc(Cl)cc2)c2nc3ccccc3s2)cc1 | inconclusive [activator, partial curve] | –
42 | O=C(CN1CCOCC1)Nc1c2c(nc3ccccc13)N(Cc1ccccc1)CC2 | inconclusive [activator, partial curve, poor fit] | –
